Experimental data published in PubChem BioAssay AID1671194 (National Center for Advancing Translational Sciences (NCATS), 2021).
“And” between values parts separate entries of the source, which are not always exact repeats. Equal values may be shown once. Hit rate of the full screen: of about 140,000 compounds, about 240 (0.17%) were called active. Inconclusive means that the source gave no clear call. Such entries were picked first, then a sample of the others. Calls come from the whole dose curve; as a rule, active = well fitted inhibition curve with a large enough effect; inconclusive = small, poorly fitted or top-dose-only effect; inactive = no such curve, though single readings can be large or run the other way. Potencies beside an inconclusive call are fits to weak or partial responses and may not hold up.

assay: Primary qHTS assay for inhibitors of alpha-synuclein gene (SNCA) expression; conditions: HEK-293 SNCA-luciferase knock-in, luminescence, 24 h; activity change, negative = inhibition: at 57.2 µM (top of the series) unless noted; note: nearly all actives have a fitted effect of over 45% in size;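 for activity change, negative = inhibition: plate controls were DMSO cells for no effect and cell-free wells for full effect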
Potency is the fitted concentration of half-maximal effect; tags give direction and shape of the fitted curve.

Compound	activity change, negative = inhibition	Potency
CCOc1ccc(OCC)c(-c2nc3ccc(-c4ccc(OC)c(OC)c4OC)cc3o2)c1	inactive: 26.1%	
COc1ccc(-c2noc([C@@H]3CCCN3C(=O)c3ccc(C)nc3)n2)cc1		inconclusive: 28.2 µM [inhibitor, single point]
Cc1ccc(C(=O)Nc2ccc(Oc3cc4cnn(C)c4cc3-c3cn[nH]c3)c(F)c2)c(=O)n1-c1ccc(F)cc1		inconclusive: 15.2 µM [inhibitor, full curve, poor fit]
CCOC(=O)c1cc(-c2ccccc2)n(-c2cccc(C(=O)Nc3ccc(OC)cc3)c2)c1C		inconclusive: 2.24 µM [inhibitor, full curve]
C[C@H](NCc1ccc2c(c1)nc(NC(=O)c1ccc(-c3cn[nH]c3)s1)n2CCc1ccccc1)C(C)(C)C		active: 6.81 µM
CN(C)C[C@@H]1CN(c2ncccn2)C[C@H]1NS(=O)(=O)c1cccnc1	inactive: 5.99%	
O=C(NC1CCN(c2ccnc3ccnn23)CC1)c1ccc(F)cc1	inactive: -2.48%	
CSc1cccc(Nc2nc3c(S(=O)(=O)c4ccccc4)nnn3c3ccc(Cl)cc23)c1		inconclusive: 3.55 µM [inhibitor, full curve, poor fit]
O=C(c1ccc2c(c1)N(Cc1ccc(F)cc1)C(=O)c1ccccc1S2=O)N1CCC(Cc2ccccc2)CC1 (stereo unspecified)		inconclusive: 11.2 µM [inhibitor, partial curve, poor fit]
CCOc1ccc(C(=O)N2CCC(Cc3nc(-c4ccc(OC)cc4)no3)CC2)cc1OCC		inconclusive: 2.51 µM [inhibitor, full curve]
O=C(Cn1c(=O)nc(-c2ccccc2F)c2cc(Cl)ccc21)N1CCN(c2ccccc2F)CC1		inconclusive: 7.08 µM [inhibitor, single point]
COC(=O)c1scc(-c2ccc(C)cc2)c1S(=O)(=O)Nc1cc(OC)c(OC)c(OC)c1		inconclusive: 10 µM [inhibitor, partial curve, poor fit]
COc1ccc(CNC(=O)C(=O)Nc2ccc(OC)cc2OC)cc1		inconclusive: 2.82 µM [inhibitor, partial curve, poor fit]
COc1cccc(N2C(=O)NC(=NC3CCCCC3)C23CCN([S+](=O)([O-])c2cccc(C(F)(F)F)c2)C3)c1 (stereo unspecified)		inconclusive: 2.82 µM [inhibitor, partial curve, poor fit] and inconclusive: 44.7 µM [inhibitor, single point]
COc1ccc(-c2c(C(=O)NCc3ccc(F)cc3)nc3sccn23)cc1	inactive: -24%	
Cc1noc(C)c1Cn1cc2c3c(cccc31)[C@H](CC(C)C)N[C@H](C(=O)NCC1CC1)C2	inactive: -16.2% [at 87.6 µM]	
Cc1nnc(C(C)C)n1C1C[C@H]2CC[C@@H](C1)N2CC[C@H](NC(=O)C1CCC(F)(F)CC1)c1ccccc1 (stereo partly specified)		inconclusive: 42.9 µM [inhibitor, single point]
Clc1cccc(-n2ncc3c(N4CCCCC4)ncnc32)c1		inconclusive: 2 µM [inhibitor, full curve, poor fit]
Cc1ccc(-n2c(Cc3ccccc3)nnc2SCc2nc(-c3cccs3)no2)cc1		inconclusive: 39.8 µM [inhibitor, single point]
CCCNC(=O)N1CCCCCNC(=O)CC1c1ccccc1 (stereo unspecified)		inconclusive: 1.58 µM [inhibitor, partial curve, poor fit]
Cn1ccnc1CNC(=O)C[C@@H]1C[C@H]2O[C@H](CNCc3cnccc3Cl)[C@@H](O)[C@H]2O1		inconclusive: 10 µM [inhibitor, partial curve, poor fit]

Compound	activity change, negative = inhibition	Potency
Cc1ccc(/C=C/c2onc(C)c2S(=O)(=O)N2CCC(C(=O)N3CCC(N(C)C(C)C)CC3)CC2)cc1		inconclusive: 39.8 µM [inhibitor, single point]
CCOc1ccc(-c2cc3c(=O)n(CCNC(=O)c4cccc(Cl)c4)ccn3n2)cc1	inactive: 55.1%	
CCC(CC)C(=O)N1CC[C@H]2NC(=O)N(c3ccc(C(C)C)cc3)C(=O)[C@H]21	inactive: -12.5% [at 87.6 µM]	
COc1ccc(OC)c(CN2CCC3OCCN(Cc4ccccc4)C(=O)C3C2)c1 (stereo unspecified)	inactive: 23.7% [at 87.6 µM]	
Cc1ccc(OCc2nc(C3CCN(C(=O)Cc4cccc(F)c4)C3)no2)cc1 (stereo unspecified)	inactive: -2.51%	
O=C(NC1CCCCC1)C1c2ccccc2C(=O)N(Cc2ccccc2)C12CCCC2 (stereo unspecified)		inconclusive: 28.2 µM [inhibitor, single point]
O=C(Cc1c[nH]c2ncc(-c3ccccc3)cc12)NCC1CCOCC1	inactive: 7.29% [at 87.6 µM]	
COc1ccc(Cl)cc1NC(=O)Cc1ccc(NC(=O)N2CCCCc3ccccc32)cc1		inconclusive: 39.8 µM [inhibitor, single point]
Cc1ccc(C(=O)N2CCN(C(=O)c3nnn4c3COC(c3ccccc3)C4)CC2)cc1C (stereo unspecified)		inconclusive: 3.55 µM [inhibitor, full curve, poor fit]
O=C(CCC[C@H]1NC[C@@H]2CC1CN(Cc1ccccc1)C2)NCCCN1CCCCC1		inconclusive: 20 µM [inhibitor, single point]
Cc1ccccc1CC(=O)N1CCC2(CC1)NC(=O)N(c1ccc(F)cc1)N2	inactive: 51.3%	
O=C(c1ccccc1Cl)N1CCN(C(=O)c2nnn3c2COC(c2ccccc2)C3)CC1 (stereo unspecified)		inconclusive: 1.78 µM [inhibitor, partial curve, poor fit]
COc1ccccc1N1CCN(C(=O)c2cc3n(n2)CC(c2ccc(Cl)cc2)OC3)CC1 (stereo unspecified)		inconclusive: 39.8 µM [inhibitor, single point]
COc1ccc(CC(=O)NCc2cn[nH]c2-c2ccc(C)cc2)cc1		inconclusive: 11.2 µM [inhibitor, partial curve, poor fit]
CNC(=O)c1cc[nH]c1C1CCCN(C(=O)c2ccc(Cn3cncn3)o2)C1 (stereo unspecified)		inconclusive: 39.8 µM [inhibitor, single point]
COc1cc(C(=O)Oc2c(Sc3ccccc3)c(C)nn2-c2ccccc2)cc(OC)c1OC		inconclusive: 20 µM [inhibitor, partial curve, poor fit]
CC1CCN(C(=O)C2CCCCc3nnc(-c4ccccc4)n32)CC1 (stereo unspecified)	inactive: 7.08%	
COc1ccccc1-c1nnc([C@H]2CCN(CC3CCCCC3)C2)o1	inactive: 0.0663% [at 87.6 µM]	
CN1CCCN(C[C@@H]2CN(C(=O)C3(Cn4cccn4)CC3)C[C@@H]2CO)CC1	inactive: 2.4%	
Cc1ccc(S(=O)(=O)N(CC(O)Cn2c3ccccc3c3ccccc32)c2cccc(C(N)=O)c2)cc1 (stereo unspecified)		inconclusive: 39.8 µM [inhibitor, single point]
O=C(NCCc1ccc(Cl)cc1)c1nc(-c2ccc(Cl)nc2)c2ccccn12	inactive: 99.4%	

Compound	activity change, negative = inhibition	Potency
COc1ccc2ccc(OCc3nc(C(=O)N4CCCC(C(N)=O)C4)co3)cc2c1 (stereo unspecified)		inconclusive: 25.1 µM [inhibitor, single point]
CCOC(=O)N[C@@H]1CC[C@@H]2[C@@H](C1)C[C@H]1C(=O)O[C@H](C)[C@H]1[C@@H]2C=Cc1ccc(-c2cccc(F)c2)cn1		inconclusive: 13.6 µM [inhibitor, full curve, poor fit]
COc1ccccc1-c1cccc(CN2CCC(NC(=O)C3CCCC3)CC2)c1	inactive: -13.8%	
COc1cccc(CN2C(=O)OC3(CCN(Cc4ccc(F)cc4)CC3)C2(C)c2cccnc2)c1 (stereo unspecified)		inconclusive: 17.8 µM [inhibitor, single point]
Cc1ccc(CN2C(=O)COC[C@H]2C(=O)N2CCN(c3ccccc3F)CC2)cc1	inactive: -3.76%	
O=C(c1c[nH]c(=O)[nH]1)N1CC[C@@H]2[C@@H](CCC(=O)N2CC2CCNCC2)C1		inconclusive: 10 µM [inhibitor, partial curve, poor fit]
Cc1ccc(NC(=O)c2cc(-c3ccc[nH]3)n[nH]2)cc1C	inactive: 10.7%	
Cc1oc(-c2ccccc2)nc1CN1CCCC(C(=O)N2CCC(c3nc(C(=O)N4CCCC4)c(C)o3)CC2)C1 (stereo unspecified)		inconclusive: 20 µM [inhibitor, partial curve, poor fit]
CCOc1ccc(CNC(=O)C2CCCN(S(=O)(=O)c3ccc4c(ccn4C)c3)C2)cc1 (stereo unspecified)		inconclusive: 28.2 µM [inhibitor, partial curve, poor fit]
CC1Oc2ccc(NC(=O)c3ccccc3)cc2CN(Cc2ccc(Cl)cc2)C1=O (stereo unspecified)	inactive: -14.7%	
Cc1ccccc1-n1c(SCc2ccc(Cl)cc2)nc2[nH]ncc2c1=O		inconclusive: 12.6 µM [inhibitor, single point]
CCCCc1ccc(NC(=O)c2ccc(=O)n(Cc3cccc(C)c3)c2)cc1		inconclusive: 14.1 µM [inhibitor, partial curve, poor fit]
CC(C)(Oc1nn(CC2CCOCC2)c2ccccc12)C(=O)NC1CCOCC1	inactive: -1.18% [at 87.6 µM]	
CC(C)(C)c1ccc(-c2nc(SCCCOc3ccccc3)n3[nH]c(=O)cc3n2)cc1		inconclusive: 39.8 µM [inhibitor, single point]
CCC1=C(C(=O)OC)C(c2ccccc2OC)N2C(CC(=O)N3CCCC3)=CSC2=N1 (stereo unspecified)		inconclusive: 7.94 µM [inhibitor, single point]
Cc1nn2c(c1-c1ccccc1Oc1ccccc1)N(Cc1cccc(C#N)c1)CCC2		inconclusive: 2.82 µM [inhibitor, full curve, poor fit]
Cc1ccc2nc(NC(=O)C3CC(=O)N(c4n[nH]c5ccccc45)C3)sc2c1 (stereo unspecified)		inconclusive: 1.12 µM [inhibitor, full curve, poor fit]
COc1cccc(CN2Cc3nc(-c4cc(Cl)ccc4OC)ccc3OCC2=O)c1	inactive: -21.8% [at 87.6 µM]	
CCOC(=O)Cn1c(=O)n(-c2ccccc2OC)c2nc(-c3cccc(F)c3)nc(C(N)=O)c21		inconclusive: 35.5 µM [inhibitor, single point]
